The text below walks through data of ChEMBL document CHEMBL4888484, “Replenishing the malaria drug discovery pipeline: Screening and hit evaluation of the MMV Hit Generation Library 1 (HGL1) against asexual blood stage Plasmodium falciparum ,using a nano luciferase reporter read-out” (2022).

In all, about 150,000 compounds went through this assay and about 540 (0.36%) showed an effect of 50% or more. The list shows a part of the results.

By % Inhibition is commonly meant the drop in the measured response relative to a control, in per cent.

The test system of the assay is Plasmodium falciparum. As to the kind of experiment: Primary screen in NF54 nanoGlo assay, in single point, at 2uM, 72h; a lower Z score goes with more inhibition. The following applies: timepoint 72 hour. Format: functional, Erythrocyte.
As for `CC(C)Oc1ccc(N2C[C@@H](C(=O)NCCn3cnnn3)CC2=O)cc1`, the “% Inhibition” value is on record as -13% and the Z score worked out at 2.23.
The matching figures for `Cc1ccc(CNC(=O)N2C[C@@H]3CC[C@H]2CN(CC(=O)N(C)C)C3)cc1`: -8% and 1.48.
For `C[C@@H](C(=O)N(CCC#N)c1ccccc1)N(C)CCc1ccncc1`, in that order: -13% and 1.12.
The matching figures for `O=C(NCc1cccc(Cn2cnc3ccccc32)c1)c1cncc(Br)c1`: -8% and 1.5.
Take `O=C(CC1CCOCC1)Nc1cc(Cl)cc(Br)c1O`: the “% Inhibition” value is -12% and the Z score worked out at 1.66.
With `CC[C@@]1(C2CCN(C(=O)Cc3ccccc3C)CC2)NC(=O)N(CCc2scnc2C)C1=O`, the “% Inhibition” value was -5% and the Z score worked out at 0.7.
Consider `CC(=O)NC(C)(C)C(=O)NCc1cc(C)[nH]n1`, for which the “% Inhibition” value came to 0% and the Z score is recorded as 0.02.
As for `CCCn1cnnc1COC(=O)CCc1c[nH]c2ccccc12`, the “% Inhibition” value is recorded as 1% and the Z score is -0.09.
For `Cc1ccoc1CN[C@@H]1CCOc2c(F)ccc(F)c21`, in that order: 0% and -0.02.
The matching figures for `Cc1cc(C(=O)N(Cc2cccnc2)Cc2ccco2)nc(O)n1`: 5% and -0.81.
For the compound `CCCN1CCC(NC(=O)c2cc3c(s2)CCCCC3)CC1`, the “% Inhibition” value is given as -9% and the Z score stood at 1.28.
The matching figures for `Cc1nccn1CCCC(=O)NCCOc1ccc(C(C)(C)C)cc1`: -10% and 1.26.
For `Cc1ccc(F)cc1C(=O)N(C)C[C@H](C)C(=O)O`, in that order: -14% and 1.71.
The matching figures for `CCCNC(=O)[C@H](C)NC(=O)Nc1ccc(C)cc1`: -17% and 2.25.
For the compound `CN(CC#N)S(=O)(=O)c1cc(Br)cc2c1OCCNC2=O`, the “% Inhibition” value was -1% and the Z score is listed as 0.19.
The matching figures for `C[C@@H](c1ncnn1Cc1ccccc1)N1CCCCC1`: -23% and 3.07.
The matching figures for `N#C[C@@H]1CN(c2nc3ccccc3o2)CCO1`: -4% and 0.37.
On to `Cc1ccc(N2CCC[C@@H]2COC(=O)c2ccn3cncc3c2)nn1`, for which the “% Inhibition” value is on record as -7% and the Z score worked out at 0.84.
For `O=C1C[C@H](N2CCCCCC2)C(=O)N1c1ccc(Br)cc1Br`, in that order: -10% and 1.65.
For `CC1(C)C(=O)N(Cc2ccccc2)CCN1S(=O)(=O)N1CCOCC1`, in that order: 17% and -2.21.
The matching figures for `COc1cccc(NC(=O)NCC(F)(F)F)c1Br`: 5% and -0.61.
On to `Cc1ccc(-c2noc(-c3cccn3CC(=O)N(C)C3CCCCC3)n2)cc1`, for which the “% Inhibition” value is 3% and the Z score is recorded as -0.36.
The matching figures for `O=C(O)C1CCC(Nc2ccc(Cc3nnc4n3CCCCC4)cc2)CC1` (stereo unspecified): -10% and 0.94.
The matching figures for `C[C@]1(C(=O)O)CCCN(Cc2ccc3nsnc3c2)C1`: -11% and 2.25.
The matching figures for `Cc1nncn1CCN1CCC[C@H](c2nc3ccccc3n2C)C1`: -1% and 0.1.
As to `O=C(N[C@H]1CCCN(C(=O)C2CCC2)C1)c1ccc2ccccc2c1`, the “% Inhibition” value is recorded as -26% and the Z score turned out to be 2.61.
For `O=C(CCCn1cccn1)N1CCC(Cn2ccnc2)CC1`, in that order: -4% and 0.41.
For `CCCCc1cc(NC(=O)c2ccc(C#N)cn2)on1`, in that order: 1% and -0.14.
For `C#CCNC(=O)[C@H](C#N)c1nc(C)c(C)s1`, in that order: 32% and -0.92.
As for `C[C@H]1CN(C)c2ccccc2CN1C(=O)NCc1ccccc1S(N)(=O)=O`, the “% Inhibition” value is -16% and the Z score is 2.43.
Turning to `Cc1cccc(Cn2c(-c3cnccn3)n[nH]c2=O)c1`, the “% Inhibition” value is recorded as -4% and the Z score amounted to 0.56.
The matching figures for `Nc1nc2c(s1)[C@@H](c1ccccc1OCc1cccc(Cl)c1)CC(O)=N2`: 24% and -2.71.
The matching figures for `Cc1cc(-c2nc(-c3ccc(F)cc3)no2)c(C)n1CC(=O)NCc1ccc2c(c1)OCO2`: -4% and 0.76.
The matching figures for `Cc1cn(C)nc1CN1C[C@@H](N)Cc2ccccc21`: -9% and 0.97.
Take `Cc1c(-c2nnc(C(=O)NCCCN(C)C3CCCCC3)o2)oc2c(C)cccc12`: the “% Inhibition” value is recorded as 15% and the Z score is -1.73.
For the compound `CN(c1cc(CO)c(F)cn1)C1CCC1`, the “% Inhibition” value is reported as -16% and the Z score worked out at 1.72.
Consider `Cc1nc(-n2cnnc2)ccc1-c1ccc(F)c2cccnc12`, for which the “% Inhibition” value is listed as -7% and the Z score is reported as 1.28.
The matching figures for `O=C(CN[C@@H](Cc1ccccc1)c1cccs1)N1CCOCC1`: -3% and 0.3.
With `Cc1ccsc1CN(Cc1ccccc1)C(=O)CN(C(=O)C1CCCCC1)C1CCCCC1`, the “% Inhibition” value was -17% and the Z score turned out to be 1.9.
With `CCOC(=O)c1cc2nc(C)n(CC)c2cc1N(CC)C(C)=O`, the “% Inhibition” value is on record as -32% and the Z score was determined as 3.79.
For `CCOc1ncccc1C(=O)Nc1cnn2c1NCCC2`, in that order: -7% and 1.28.
Regarding `CO[C@H]1COC[C@@H]1Nc1ncc(C(F)(F)F)cc1Cl`, the “% Inhibition” value is reported as -6% and the Z score was found to be 0.78.
On to `Cn1ncnc1-c1ccc(CCC(C)(C)O)cc1`, for which the “% Inhibition” value was determined as 8% and the Z score was -1.08.
